# Data as given in the supplement of paper PMC3334620.
# Over roughly 33,000 sequences, “E-score (-0.5 to 0.5)” has its median near -0.035; the highest 2% begin near 0.35. The list shows a part of the results.
# Biological target: T1, Pdr3 (UniProt P33200)
# T1 sequence: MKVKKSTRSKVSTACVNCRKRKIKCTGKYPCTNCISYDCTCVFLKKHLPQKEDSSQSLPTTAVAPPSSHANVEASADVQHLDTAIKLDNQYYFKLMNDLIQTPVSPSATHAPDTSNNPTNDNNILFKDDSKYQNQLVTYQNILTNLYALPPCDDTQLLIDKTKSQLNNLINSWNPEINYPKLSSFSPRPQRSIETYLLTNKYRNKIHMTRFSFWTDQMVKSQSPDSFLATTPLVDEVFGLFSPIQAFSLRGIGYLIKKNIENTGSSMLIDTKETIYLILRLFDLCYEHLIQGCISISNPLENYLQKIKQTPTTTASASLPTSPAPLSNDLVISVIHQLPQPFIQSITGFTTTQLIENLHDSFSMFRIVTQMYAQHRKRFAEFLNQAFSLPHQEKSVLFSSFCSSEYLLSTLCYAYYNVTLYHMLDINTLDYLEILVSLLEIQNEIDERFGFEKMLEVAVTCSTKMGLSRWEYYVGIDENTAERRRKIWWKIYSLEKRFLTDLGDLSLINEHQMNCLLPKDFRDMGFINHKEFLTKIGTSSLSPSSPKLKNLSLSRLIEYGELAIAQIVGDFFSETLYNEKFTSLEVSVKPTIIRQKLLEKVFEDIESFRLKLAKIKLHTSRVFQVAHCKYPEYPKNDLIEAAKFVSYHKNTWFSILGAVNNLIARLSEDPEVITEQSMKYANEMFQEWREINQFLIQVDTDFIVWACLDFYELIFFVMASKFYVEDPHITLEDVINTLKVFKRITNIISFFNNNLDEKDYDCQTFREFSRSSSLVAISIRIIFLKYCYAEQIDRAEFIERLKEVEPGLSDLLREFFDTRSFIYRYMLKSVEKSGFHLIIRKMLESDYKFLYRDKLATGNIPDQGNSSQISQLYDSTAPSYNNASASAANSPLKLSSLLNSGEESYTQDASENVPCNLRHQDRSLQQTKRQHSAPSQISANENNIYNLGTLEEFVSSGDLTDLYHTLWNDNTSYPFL
# Experiment: PBM E-score (8-mer binding enrichment) (E-score (-0.5 to 0.5)); higher = stronger / more preferred TF binding; most listed sequences are background and not binding sites
# Conditions: protein concentration: 200 nM; construct: GST-full length
# Summary of the method: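 Masliner-normalised scans of fluorescent anti-GST signal were the basis for scoring. That signal came from GST-tagged yeast transcription factors applied at about 100-200 nM to double-stranded universal all-10-mer Agilent arrays on fresh or once-stripped slides. Each ungapped eight-base word, pooled with its reverse complement, received an E-score from the Universal PBM Analysis Suite.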
row,Sequence,PBM E-score
1,CACGGTGG,0.116
2,ATCGACAC,-0.0916
3,ACGGTGAC,-0.101
4,CTTCACAA,-0.214
5,ACAATGAG,-0.132
6,CCACGCTC,-0.141
7,AAGCGGAC,0.171
8,ATTCGCTG,-0.0287
9,AACCGCTT,-0.0131
10,ATCGGGAG,0.162
11,GACCGCGC,0.199
12,CGAGAAAC,0.0825
13,ACCTCAGT,-0.1
14,AGTGAGTC,-0.161
15,AAGCGTTA,-0.163
16,ATTTAGAG,0.0391
17,GCCCTTCC,0.0371
18,CAATTTGC,-0.0517
19,GCTGGTCA,-0.244
20,ATATGCAG,-0.216
21,CCTCAAAG,-0.268
22,AGCAGTGA,0.133

row,Sequence,PBM E-score
1,AGGGTCGA,0.0324
2,AACTGTCT,-0.0879
3,CCGTTTAG,0.135
4,ATGGTGGA,-0.132
5,GCAAGATA,-0.00203
6,CCTGTGGA,-0.28
7,GTGCTGGA,-0.0428
8,CAGGCACA,-0.171
9,CTAGATGA,-0.196
10,AGAGGTGC,-0.14
11,GAGGTTTA,-0.0911
12,GTAATAAC,-0.114
13,ACGCTAAC,-0.141
14,GCGACCGC,0.158
15,ATGCCGGC,0.341
16,GACGCCAC,-0.018
17,ATCGGACC,0.313
18,CCCCCAAC,-0.173
19,GTAGCAGA,-0.114
20,ACCCCGCG,0.32
21,AAGGAAGC,-0.0529
22,TAGAACCA,-0.178

row,Sequence,PBM E-score
1,AATGTGGT,-0.104
2,CGGACTCA,0.31
3,TAACAAGA,-0.151
4,AATAACCC,0.181
5,GGACTCCC,-0.0707
6,AAATACAG,-0.00964
7,GATATGAC,0.081
8,ACCTTCCA,-0.198
9,AGGGCTTA,-0.315
10,ACGACCTA,-0.00577
11,ATGCAGTG,0.00421
12,AATTCGCT,0.129
13,AGCGTGAG,-0.167
14,ATACTCAA,-0.0716
15,CTCCAACA,-0.0174
16,CATACGAC,-0.277
17,CATTAGGC,-0.185
18,AGTTCAAC,0.104
19,CATGCCGA,0.248
20,AGTCTACA,-0.309
21,CAACTGTG,-0.0651
22,AGGGGGCG,-0.106

row,Sequence,PBM E-score
1,CAATCCCC,0.0676
2,AGACCTAA,-0.155
3,TCTAGAAA,-0.0878
4,TAATACGA,-0.185
5,CTCTATAC,-0.136
6,AGCGCTAA,0.0193
7,AAGTTAAG,-0.126
8,ATTAGTGG,0.067
9,ACCGTTTA,0.0286
10,CTAAACGC,-0.0941
11,GCATGGGC,-0.128
12,ATTTCTGA,-0.26
13,TACCACCA,-0.0345
14,AAGCCCCC,-0.0967
15,ATACTTAG,-0.0301
16,GGCCTGCA,-0.132
17,AGTTTTCG,-0.0374
18,GGGGCAAC,-0.155
19,CCCTCATA,-0.212
20,TGCTCGAA,-0.133
